Data on 88 compounds can be found in article PMC4336329 (PLoS ONE, 2015).

Screen size: about 310,000 compounds; about 14,000 (4.5%) showed an effect of 50% or more. The effect is printed as a negative number. Some of the results follow.
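Further: peak tail current of the secondary pulse compared with the same well before compound.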

Sequence of human ether-à-go-go-related gene (hERG) potassium channel (Q12809 whole entry, looked up): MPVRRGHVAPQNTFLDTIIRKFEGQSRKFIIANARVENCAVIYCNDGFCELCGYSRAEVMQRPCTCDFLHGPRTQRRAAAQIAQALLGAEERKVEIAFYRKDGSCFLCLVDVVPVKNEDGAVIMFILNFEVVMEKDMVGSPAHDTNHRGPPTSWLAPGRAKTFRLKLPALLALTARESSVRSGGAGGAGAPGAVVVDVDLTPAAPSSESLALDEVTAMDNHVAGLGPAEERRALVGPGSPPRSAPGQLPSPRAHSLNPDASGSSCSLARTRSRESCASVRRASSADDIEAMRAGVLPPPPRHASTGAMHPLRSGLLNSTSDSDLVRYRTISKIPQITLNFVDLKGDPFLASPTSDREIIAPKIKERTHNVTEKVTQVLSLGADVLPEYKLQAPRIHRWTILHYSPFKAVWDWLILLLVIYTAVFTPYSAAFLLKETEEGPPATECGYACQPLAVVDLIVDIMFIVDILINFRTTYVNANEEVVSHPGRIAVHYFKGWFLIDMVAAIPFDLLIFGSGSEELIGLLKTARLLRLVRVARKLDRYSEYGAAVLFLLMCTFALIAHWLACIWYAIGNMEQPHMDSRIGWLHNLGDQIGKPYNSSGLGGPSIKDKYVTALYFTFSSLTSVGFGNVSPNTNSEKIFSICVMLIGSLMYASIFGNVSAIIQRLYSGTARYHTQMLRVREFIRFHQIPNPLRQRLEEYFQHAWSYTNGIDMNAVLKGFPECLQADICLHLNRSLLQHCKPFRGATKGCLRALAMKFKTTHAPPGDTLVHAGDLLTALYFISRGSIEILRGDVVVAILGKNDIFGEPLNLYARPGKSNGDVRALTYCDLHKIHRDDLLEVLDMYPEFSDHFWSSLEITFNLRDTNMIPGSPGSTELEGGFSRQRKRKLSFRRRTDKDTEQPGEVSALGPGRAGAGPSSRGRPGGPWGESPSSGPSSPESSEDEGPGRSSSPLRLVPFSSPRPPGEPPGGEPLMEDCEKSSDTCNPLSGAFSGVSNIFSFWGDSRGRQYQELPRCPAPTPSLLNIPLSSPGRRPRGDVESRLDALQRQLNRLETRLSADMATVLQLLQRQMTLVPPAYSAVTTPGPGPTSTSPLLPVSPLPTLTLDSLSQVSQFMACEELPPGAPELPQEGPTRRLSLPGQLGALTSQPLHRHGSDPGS

This assay has as its target human ether-à-go-go-related gene (hERG) potassium channel (human, UniProt Q12809). Kind of assay: primary screen, population patch clamp on CHO cells stably expressing hERG.
Take `O=C1CSC(=Nc2cccc(Cl)c2Cl)N1`: the “hERG current change (%, negative = inhibition) at 10uM” value is recorded as 19.1%.
Take `COc1ccccc1NC(=S)NNC(=O)c1ccccc1`: the “hERG current change (%, negative = inhibition) at 10uM” value is reported as -1.04%.
For `Cc1ccc(S(=O)(=O)Nc2ccccc2C=Nc2cccc(C)c2C)cc1`, the “hERG current change (%, negative = inhibition) at 10uM” value came to 3.56%.
The result for `c1coc(CNc2nc(-c3cccs3)cs2)c1` reads -9.83%; that for `NC(N)=N/N=C/c1cccc(Cl)c1Cl`, -11.3%; that for `NC(=O)COC(=O)c1ccc(NS(=O)(=O)c2ccc3c(c2)OCCO3)cc1`, 3.37%.
In the case of `Cc1c(Cl)cccc1NC(=O)CSC(C)c1nc2ccccc2c(=O)[nH]1` (stereo not shown) it was 10.5%.
The result for `Cc1cccc(OCC(=O)N2CCN(C(=O)c3ccco3)CC2)c1` reads -6.95%; that for `COc1ccc(N2CCN(CCCNC(=O)Cn3c(=O)c4cccn4c4cccnc43)CC2)cc1`, -57.2%.
In the case of `CCOc1ccc(C(C)(C)C)cc1S(=O)(=O)N1CC(C)OC(C)C1` (stereo not shown), the “hERG current change (%, negative = inhibition) at 10uM” value is reported as -4.79%.
For `CCCOc1ccc(N2C(=O)CC(N(CCc3ccc(OC)c(OC)c3)C(=O)c3ccccc3)C2=O)cc1` (stereo not shown), the “hERG current change (%, negative = inhibition) at 10uM” value is recorded as -74.9%.
In the case of `O=C(CCC(=O)N1CCN(c2ccccc2F)CC1)c1ccc(F)cc1` it was -35.4%; in that of `O=C(NN(c1ccccc1)c1ccccc1)c1ccc([N+](=O)[O-])o1`, 1.01%.
In the case of `CCCc1nc(SCC(=O)O)c2sc(=S)n(-c3ccccc3)c2n1` it was 3.76%; in that of `CCN1/C(=C\C=C(C(C)=O)C(C)=O)Sc2ccccc21`, -2.64%; in that of `COc1ccc(NC(=O)c2ccc(S(=O)(=O)N3CCCCCC3)cc2)c(OC)c1`, -8.76%.
Turning to `Cc1ccc(COC(=O)c2cc([N+](=O)[O-])ccc2N2CCOCC2)cc1`, the “hERG current change (%, negative = inhibition) at 10uM” value was -53.7%.
In the case of `CC(=O)c1cnc(SCC(=O)O)nc1C` it was 21.1%; in that of `CCOC(=O)Cc1cnc(NC(=O)CSc2nc3ncnc(N)c3[nH]2)s1`, 16.6%; in that of `Cc1c(C(=O)N2CCN(c3ccc(F)cc3)CC2)sc2ncnc(N3CCN(c4ccccn4)CC3)c12`, -65.1%.
In the case of `Cc1cc(C)c(S(=O)(=O)N(C)CC(=O)NCCN2CCOCC2)c(C)c1` it was 1.24%.
The result for `CCOC(=O)N(C)c1ccc(C(O)(C(=O)OCC)C(F)(F)F)cc1` (stereo not shown) reads -2.29%; that for `COc1cc2oc3ccc(C#Cc4ccc(N)cc4)cc3c(=O)c2cc1OC`, 6.49%; that for `CCCCOc1cccc(C(=O)NC(=S)Nc2cccnc2)c1`, -7.19%.
Consider `NC(=O)CSc1nnc(-c2cc3ccccc3o2)n1Cc1ccccc1`, for which the “hERG current change (%, negative = inhibition) at 10uM” value is -7.16%.
In the case of `Cc1nc2c(-c3ccccc3)cnn2c(N2CCOCC2)c1C` it was 11.8%; in that of `Cc1cccc(NC(=O)c2cnn(-c3ccc(F)cc3)c2C2CCNCC2)c1C.Cl`, -9.71%.
The result for `O=C1N/C(=N\N=C\c2ccc3ncccc3c2)SC1Cc1ccc(SC(F)F)cc1` (stereo not shown) reads 8.42%; that for `CCOc1cc(C(=O)Oc2cc(C)[nH]c(=O)c2[N+](=O)[O-])cc(OCC)c1OCC`, 21.5%.
The result for `Cc1c(Cl)c(-c2n[nH]c(=S)n2CC(C)C)nn1C` reads 20%.
On to `CCc1noc(C)c1C(=O)Oc1ccc(N(C)S(=O)(=O)c2ccc(C)c(C)c2)cc1`, for which the “hERG current change (%, negative = inhibition) at 10uM” value was determined as 11.4%.
Consider `O=C(Nc1ccc(O)cc1)C1CC=CCC1` (stereo not shown), for which the “hERG current change (%, negative = inhibition) at 10uM” value is -3.93%.
In the case of `COCC(=O)Nc1cc(C)cn(Cc2ccc(F)cc2)c1=O` it was -12.1%; in that of `Cc1cccc(NC(=O)CCS(=O)(=O)c2ccc(Cl)cc2)c1`, 9.09%; in that of `Cc1ccccc1-c1nc2sc3c(c2c(=O)n1N)CCCC3`, -0.971%.
In the case of `COC(=O)Cn1cc(/C=C/c2cc[n+](C)cc2)c2ccccc21.[I-]` it was 5.7%; in that of `CCCCCC(=O)Nc1nc(C)c(-c2csc(Nc3cc(Cl)ccc3C)n2)s1`, 31.7%; in that of `O=C(C[n+]1ccc(/C=N/O)cc1)NC1CCCCC1.[Cl-]`, 11%.
In the case of `Cc1ccc(-c2noc(C3CCN(S(C)(=O)=O)CC3)n2)o1` it was -18%; in that of `O=C(/C=C/c1cccc([N+](=O)[O-])c1)OCC1CCCO1` (stereo not shown), 0.83%.
As to `CN1CCC(N(C)CC(C)(C)NS(=O)(=O)c2ccccc2)CC1.Cl`, the “hERG current change (%, negative = inhibition) at 10uM” value is on record as -9.97%.
In the case of `C/C(=N\NC(=O)c1nn(C)c(C)c1Br)c1ccc(NC(=O)c2ccoc2C)cc1` it was -0.832%.
Turning to `COc1cc(-c2nnc(COc3ccc(Cl)cc3C)o2)cc(OC)c1OC`, the “hERG current change (%, negative = inhibition) at 10uM” value came out at 0.0728%.
As to `Cc1cccc(NC(=O)c2ccc3c(=O)n(CC4CCCO4)c(=S)[nH]c3c2)c1` (stereo not shown), the “hERG current change (%, negative = inhibition) at 10uM” value is given as 1.86%.
The result for `Cn1c(CC(=O)Nc2ccc(Cl)c(Cl)c2)n[nH]c1=S` reads 11.1%; that for `CC(C)(C)c1cc(/C=N/NC(=O)C[n+]2ccccc2)cc(C(C)(C)C)c1O.[Cl-]`, 25.5%; that for `CCO/C=N/Nc1nc(C(F)(F)F)nc2c1cnn2Cc1ccccc1`, 2.56%.
In the case of `COC(=O)c1ccc(CN2C(=O)NC(CC(C)C)C2=O)cc1` (stereo not shown) it was -1.68%; in that of `COc1cccc(N(CC(=O)N2CCCCCC2)S(C)(=O)=O)c1`, 1.69%.
On to `COc1ccc(-c2nn(-c3ccccc3)cc2C(=O)N2CCN(S(=O)(=O)c3ccccc3C#N)CC2)cc1`, for which the “hERG current change (%, negative = inhibition) at 10uM” value is reported as -34.5%.
In the case of `O=C(Nc1ccc(F)cc1F)c1cc2nc3c(c(C(F)(F)F)n2n1)CCCC3` it was -4.5%; in that of `CCCCNC(=O)c1nn2cc(Br)cnc2c1Br`, -62.3%.
The result for `Cc1c(C(=O)Nc2cccnc2Cl)oc2ccccc12` reads -0.175%.
The result for `COc1ccc(C)cc1S(=O)(=O)NCCC1=CCCCC1` reads -5.55%; that for `Cc1nc(C#N)c(N/N=C/c2cccc(Cl)c2)o1`, -0.988%.
Consider `O=C(COc1ccc2ccccc2c1)Nc1cccc2c1C(=O)NC2=O`, for which the “hERG current change (%, negative = inhibition) at 10uM” value came to 9.6%.
In the case of `O=C(CSc1nnc(Cc2cc(=O)[nH]c(=O)[nH]2)n1-c1ccccc1)N1CCCC1` it was 15.4%.
Turning to `CCSc1nnc(NC(=O)C2C3C=CC(C3)C2C(=O)O)s1` (stereo not shown), the “hERG current change (%, negative = inhibition) at 10uM” value is 7.22%.
Take `CCCCOc1ccc(Cc2c(Cl)nc(SC)nc2N2CCOCC2)cc1`: the “hERG current change (%, negative = inhibition) at 10uM” value stood at 5.48%.
The result for `CN(C(=O)c1cc(COc2ccc(F)cc2Cl)on1)C1CCCc2ccccc21` (stereo not shown) reads 18.7%; that for `CCOc1ccc(Cl)cc1S(=O)(=O)n1cnc2ccccc21`, -4.02%; that for `COc1ccc(-n2nc([N+](=O)[O-])c(=NCc3ccco3)n2O)cc1`, 6.77%.
As for `CC1CCN(C(=O)C(NS(=O)(=O)c2cccc3nsnc23)c2ccccc2)CC1` (stereo not shown), the “hERG current change (%, negative = inhibition) at 10uM” value was -69.5%.
`Cn1nnnc1SCC(=O)N1CCN(S(=O)(=O)c2ccc(Cl)cc2)CC1`: the “hERG current change (%, negative = inhibition) at 10uM” value is on record as -29.8%.
In the case of `CCCc1[nH]nc2c1C(c1ccc(Br)s1)C(C#N)=C(N)O2` (stereo not shown) it was 17.1%; in that of `COc1ccc(C(=O)/C=C/Nc2ccc(S(=O)(=O)Nc3nc(C)cc(C)n3)cc2)c(OC)c1`, -11.6%.
With `Cc1noc(C)c1S(=O)(=O)N(C)CC(=O)NCc1ccccc1`, the “hERG current change (%, negative = inhibition) at 10uM” value is listed as -8.26%.
As for `CCC(=O)N=c1sc2c(C)cc(C)cc2n1CC(=O)OC`, the “hERG current change (%, negative = inhibition) at 10uM” value is given as -9.78%.
In the case of `CC1Cc2ccccc2N1C(=O)c1cc2sccc2n1Cc1ccc(F)cc1` (stereo not shown) it was 12.3%; in that of `O=C(NCCS(=O)(=O)N1CCN(c2ccccc2F)CC1)C1CC(=O)N(c2ccccc2)C1` (stereo not shown), 22.8%.
In the case of `COc1ccc(CNC(=S)Nc2ccccc2Cl)cc1` it was 8.75%; in that of `Cc1cc(NC(=O)C(C)SCC(=O)Nc2ccccc2C(C)(C)C)no1` (stereo not shown), -1.93%; in that of `O=C(CN1C(=O)NC2(CCc3ccccc32)C1=O)c1ccc(F)cc1` (stereo not shown), -57.4%.
In the case of `N#Cc1ccc(C(=O)N(Cc2ccccc2)c2ccccc2)cc1` it was -10.5%; in that of `O=C(CSc1nccc(=O)[nH]1)Nc1ccc(F)c(Cl)c1`, 16.7%.
As to `COc1cc(Nc2c3c(nc4ccccc24)CCCC3)cc(OC)c1OC`, the “hERG current change (%, negative = inhibition) at 10uM” value is on record as -65.9%.
In the case of `CCC1CCCCN1CCCNC(=O)C1CCCN(S(=O)(=O)N2CC(C)CC(C)C2)C1` (stereo not shown) it was -20.7%; in that of `COc1ccc(NC(=S)N/N=C/c2ccc(F)cc2)cc1OC`, 12.4%; in that of `COc1ccccc1NC(=O)CCCCCN1C(=O)c2cccc([N+](=O)[O-])c2C1=O`, -39.2%.
Take `Cc1ccc(C(=O)NNC(=O)Cc2ccccc2)cc1`: the “hERG current change (%, negative = inhibition) at 10uM” value is -3.32%.
In the case of `CC(C)[C@H](NC(=O)OCc1ccccc1)C(=O)OCc1ccccc1` it was -17.6%; in that of `c1cncc(C(c2nnnn2C2CCCCC2)N2CCCCC2)c1` (stereo not shown), -5.85%; in that of `CNS(=O)(=O)c1cc(-c2nnc(Nc3ccc(NC(C)=O)cc3)c3ccccc23)ccc1C`, 19.2%.
As for `COc1ccc(C(=O)OCC(=O)c2ccc(Br)s2)c(OC)c1`, the “hERG current change (%, negative = inhibition) at 10uM” value is 4.06%.
The result for `CCN1CCN(C(c2ccc(OC)cc2)c2nnnn2Cc2ccc3c(c2)OCO3)CC1.Cl` (stereo not shown) reads -45.4%.
In the case of `CNC(=O)NC(=O)COC(=O)c1n[nH]c2ccccc12` it was 16.5%; in that of `CCOC(=O)C1=C(CCc2ccccc2)NC(=O)NC1c1cccc([N+](=O)[O-])c1` (stereo not shown), 6.22%; in that of `Cc1onc(-c2c(Cl)cccc2Cl)c1-c1nnc(-c2ccc(Cl)cc2)o1`, 12.7%.
